Reference: the RNAGym collection of RNA variant scans (doi:10.7554/elife.90254)
Read counts are not given, so values of variants with three or more changes are uncertain.

B1: LINE1-mini (parent)
chain: GGCAGAGCUCAACACAGCGUGGCAAAGUGGCUGUGGCUAGACUGCC

Variants of: B1
Experiment: self-cleavage, relative activity (ratio to wild type); higher = more cleavage; in vitro, sequencing; the parent is a self-cleaving ribozyme

Row | Variant | self-cleavage
1 | CGCAGAGCUCAACACAGCGUGGCGAAGUGGCUGUGGCUAGGCUGCC [G1C A24G A41G] | 0.03
2 | GGCGGAGCUCAACACAGCGAGGCAGAGUGGCUGGGCCUAGACUUCC [A4G U20A A25G U34G G36C G44U] | 0
3 | GGCAGAGCUCAACAGAGCGUGGCAAAGCGGCUGUGGGUAGACUGCC [C15G U28C C37G] | 0.01
4 | GGCAGAGCUCAACACAGCGUUGCAAAGUGGCUGUUGCUAGUCUGCC [G21U G35U A41U] | 0.2
5 | GGCCGAGCUCAACACAUAGUGGCAAAGUGGCUCUGGCUAGACUGCC [A4C G17U C18A G33C] | 0.03
6 | GGCAGAGCACAACACAGUGUGGCAAAGUGGCUGUAGCUAGACUGCC [U9A C18U G35A] | 0.06
7 | AGCAGAGAUCAACACAGCGUGGCAAAGUGGCUAUGGCUAGACUGCC [G1A C8A G33A] | 0.27
8 | GGCUGAGUUCAACACAGCGUGGCAAAAUGGCUGUGGCUAGACUGCC [A4U C8U G27A] | 0.04
9 | GGCAGCGCUCAACACAGCGUGGCAAGGUGGCUGUCGCUAGACUGAC [A6C A26G G35C C45A] | 0.05
10 | GGCAGAGCGCAACACAUUGUGGCAAAGUGGCUGUGGCUAGACUGCC [U9G G17U C18U] | 0.02
11 | GGCAGAGCUCAACAUAGCGUGGCAAAGCGUCUGUGGCUAGACUGCC [C15U U28C G30U] | 0.22
12 | GGCAGAGCUCAACACAGCGUUGCAAAGUGGCUGUCGCUAGACCGCC [G21U G35C U43C] | 0.05
13 | GCCAGAGCUCAACACAGCGUGGCAAAGUGGCUGUGCCAAGACUGCU [G2C G36C U38A C46U] | 0.22
14 | GGCAGUGCUCAAAACAGCGUGGCAUAGUGGCUGUGGCUAUACUGCC [A6U C13A A25U G40U] | 0.11
15 | GGCAGAGCUGAGCACAGCGUGGCAAAGUGGCUGUGGCUAGACCGUC [C10G A12G U43C C45U] | 0.01
16 | GACAGAGCUCAACACAGCGUGGCAAUGUGGCUGUGGCUCGACUGCC [G2A A26U A39C] | 0.11
17 | GGCAGAGCUGAACACAACGUGGCAAAAUGGCUGUGGCUAGAUUGCC [C10G G17A G27A C42U] | 0.02
18 | GGCAGAGCUCAACACAGCGUGGCUGAGUGGCUGUGGCUAAACUGCC [A24U A25G G40A] | 0.1
19 | GGCAGAGCUUAACACAGCUUGUCAAAGUGGCUGUGGCUAGUCUGCC [C10U G19U G22U A41U] | 0.24

Row | Variant | self-cleavage
20 | GGCAGAGUUCAACACAGCGUGGCAAAGUGGCUGUGAGUAGACUGCC [C8U G36A C37G] | 0.28
21 | GGCAGACCUCACCACAGGGUGGCAAAGUGGCUGUGGCUAGACUGCC [G7C A12C C18G] | 0.01
22 | GGAGGUGCUCAACAUAGCGUGGCAAACUGGUUGUGGCUCGACUUCU [C3A A4G A6U C15U G27C C31U A39C G44U C46U] | 0.07
23 | GGCAGAGCUGAACACGGCUUGCCAAAAUGGCUGUGGCUAGACUGCC [C10G A16G G19U G22C G27A] | 0.02
24 | GGCAGAGCUAAACUCAGCGUGUCAAAGUCGCUGUGGCUAGACUGCC [C10A A14U G22U G29C] | 0.02
25 | GGCAGAGUUCAACACAGCGUGGCAAGGUGGCUGUGGCUAGCCUGCC [C8U A26G A41C] | 0.16
26 | GGCACAGCUCAACACAGCGUGGCAAAGUGGCUGUAGCUAGACUGCG [G5C G35A C46G] | 0.03
27 | GGUUGAGCUCUUCACAGCGUAACAAAGUGGCUCUGGCUAGACUGCC [C3U A4U A11U A12U G21A G22A G33C] | 0.02
28 | CCCAGAGCUCACCACAGCGUGGCAAAGUGGCUGUGGCUAGACUGCC [G1C G2C A12C] | 0.03
29 | GGCACAGCUCAACACAGCGAGGCAAAGUUACUGUGGCUAGACUCCC [G5C U20A G29U G30A G44C] | 0.04
30 | AGCAGCGCUCAACACACCGUGGCAGAGUGGCUGUGGAUAGACUGCC [G1A A6C G17C A25G C37A] | 0.02
31 | GACAUAGCUAAACACAGCGUGGCAAAGUGGCUGUGGUUCGAUUGCC [G2A G5U C10A C37U A39C C42U] | 0.02
32 | GGCAGAGCUCAACGCAGCGGGGCAAAGUGGCUGUGCCUAGACUGCC [A14G U20G G36C] | 0.02
33 | AGAAGAGCUCAACACAGCGUGGCAAAGUGGCUGUGGCCAGACUGCC [G1A C3A U38C] | 2.38
34 | GGCAAAGCUCGACACAGCGUAGCAAAGUGGCUGUGGCUAGACUGCC [G5A A11G G21A] | 0.04
35 | GGCAGAGCUCAACACAGCGUGUCAAAGUGGCUGUGGCUACACUGAC [G22U G40C C45A] | 0.09
36 | GGCAGAGCUCAACACAGCGUGGCAAAGUGGGUGUGGCGAUACUGCC [C31G U38G G40U] | 0
37 | GGCAGAGCUCAACACAACGUGGCAAAGUCGCUCUGGCUAGACUGCA [G17A G29C G33C C46A] | 0.02
38 | GGCAGAGCUCAACACAGCGUGGCAAAGUGACUGUCUCUAGACUGCC [G30A G35C G36U] | 0.12

Row | Variant | self-cleavage
39 | GGUAGAGCUCCUCGCAGCGUGGCAAAGUGGCUAUGGCUAGACUGCC [C3U A11C A12U A14G G33A] | 0.01
40 | GGCAGAGCUAAACACAGCAUGGCAACGUGGCUGUGGCUAUACUGCC [C10A G19A A26C G40U] | 0.02
41 | GGCAGAGCUCAACACCGCGUGGCAAACUGGCUGAGGCUAGACUGCC [A16C G27C U34A] | 0.07
42 | GGAAGAGCUCAACUCAGCGUGGCAAAGUGGCUAUGGUUAGACUACC [C3A A14U G33A C37U G44A] | 0.1
43 | GGAAGAGAUCAACACAGCGUGGCAAGGUGGCUGUGGCUAGACUGCC [C3A C8A A26G] | 0.21
44 | GGCCGAGCUCAACGCAGCGUGGCAAAGUGGAUUUGGCUAGACUGCC [A4C A14G C31A G33U] | 0.02
45 | GGCAGAACUCAACACAGCGUGCAGAAGUGGCUGUGGCUAGACUGCC [G7A G22C C23A A24G] | 0.07
46 | AGCAGAGCUCAACACAGCGUGGCAAAGUGGCUGUGGUUAGACUGCA [G1A C37U C46A] | 0.06
47 | AGCAGAGCUUAACACAGCGUGGCAAAGUGGUUGUGGUUAGACUGCC [G1A C10U C31U C37U] | 0.04
48 | GGCAGAGCUCAACAUAGUGUGGCAAAGUGGCUGUGGCCAGACUGCC [C15U C18U U38C] | 0.03
49 | GGCAGUACUCAACACAGCGUGGUAAAGUGACUGUGGCUAGACUGCC [A6U G7A C23U G30A] | 0.23
50 | GGCAGAACUCAACUCAGCGUGGCAAAGUGGAUGUGGCUAGACUGCA [G7A A14U C31A C46A] | 0.17
51 | GGCUGAGCUCAACACAGCGUCACAAAGUAGCUGUGGCUAGAGUGCC [A4U G21C G22A G29A C42G] | 0.01
52 | GGUAGAGCUCAACAGAGCGCGGCAAAGUGGCUGUGCCUAGACUGCC [C3U C15G U20C G36C] | 0.09
53 | GACAUAGAUCAACACAGAGUGGCAAAGUGGCUGUGGCUAGACUGCC [G2A G5U C8A C18A] | 1.85
54 | GGCAAAGUUCAACACGGCGUGGCAAAGUGGCUGUGGCUAGACUGCC [G5A C8U A16G] | 0.29
55 | GGCAGAGUUCAACACAGCGUGGCUAAGUGGCAGUGGCUAGACUGCC [C8U A24U U32A] | 0.29
56 | GGCAGAGCUAAACACAGCGUGGCAAAGUGGCUGUGGCUAGCCCGUC [C10A A41C U43C C45U] | 0.01
